Measured values taken from the RNAGym collection of RNA variant scans (doi:10.7554/elife.90254).
The source gives no read counts; variants with many changes may rest on few reads.

B1: LINE1-mini (parent)
chain: GGCAGAGCUCAACACAGCGUGGCAAAGUGGCUGUGGCUAGACUGCC

Variants of: B1
Assay: self-cleavage, relative activity (ratio to wild type); higher = more cleavage; in vitro, sequencing; the parent is a self-cleaving ribozyme

Variant	self-cleavage
C13A C15U A24C A26C G44U	0.02
A12G G17U G36A U38A G44C C45A	0.26
A12C U20A A26U G27A C37U	0.01
C13A U34A A41U	0.01
A12G C18A A24U A39U U43C	0.02
A12G G21U G29A U32G	0.02
A12U A14G A24U G30U C31A G35C C37U C45U	0.03
C13A A26C G33U	0.1
C13G C23U C31U	0.03
A12G C37A C42U C46A	0.03
C13G C15A U20A A24C	0.04
C13A A14G C45A	0.04
A12G A25U G30U G33C	0
C13G C23U A25C C31U G33U G35U	0.05
C13A G19U A39C	0.04
A12G C13U G19U G36C C46G	0.03
A12G G33U A41U C42A	0.09
A12U G19U G21U A24U	0.07
A12G A16U A25G	0.04
C13A G30U G40U	0.07
A12U U20C G22A A39C	0.07
A12C U28G G30A C45A	0.01
A12G G22A A25G G30U C42G	0
A12U G27C U28C	0.19

Variant	self-cleavage
A12G G30A C31A	0.03
A12U U20A U43C	0.2
C13G C23G C31G	0.06
C13A U20G G27C C31A C42G	0.05
A12U U20G C31A C42U	0.05
A12G C18A C23G A26C G27A	0.02
C13A A25C A41G G44A	0.01
C13A A24U C45A	0.01
C13A C18G U28G U43C C46U	0.01
A12G C13G G33C	0
C13A C23U U28C C31A U38A C46A	0.03
A12U C31U A39G	0.04
A12G A26G A39G	0
A12G C15A G29A G40A	0
A12U G19U C23U A25U	0.51
C13A C18A G27C U32C	0.06
C13A C18A C31A A41G	0.01
C13A G27U C37U G40C	0.02
A12U G19C C37U C45U	0.01
A12U A24C G44A	0.03
C13A G17A G40U	0.05
C13G C31U G44U	0.14
A12G G29U C37G A39C G40C C42U G44U	0
A12G C18A G30U C45U	0.05

Variant	self-cleavage
A12G G17U A25U G36C	0.04
A12U A26C G33C G44A	0.04
C13G A16G U32A	0.02
C13G C18G G30A A39U C46U	0.02
C13A G35U U38G	0
A12U U34A G36U	0.01
A12U G36C C42G	0
A12U C13U G21U	0.21
A12G U20A C37U	0.14
A12G A14G C37A G44A	0.04
A12C U38C A41C	0.01
C13A A14C G21A A41C	0.03
A12U G22C G27C G33U G40A	0.03
A12G A41C C46G	0.02
C13A G19C C46A	0.04
A12G A41C G44A C45G	0.04
A12G U43A G44A	0.01
C13G G17C A39G C45G	0
A12U G33A C37G	0.05
C13G A14U U28A	0.05
C13A G19C U34A	0.05
C13A G21C C23U U34C	0.05
A12U U28C A41C C45U	0.01
A12G C31G A39G G40C U43C	0.04

Variant	self-cleavage
A12G C23G A26U U34G	0.01
A12C U34C C46G	0.03
A12U G19C A24G U34C C42G G44U	0.03
C13A G19U C23G	0.1
A12U G27U G33C	0.01
A12U C15G U43A	0.02
A12U C15G U43C	0.02
C13A C15A U28C U34A	0.08
A12U A24C A25G A26C C42U C46A	0.02
A12U A24U G33U	0.05
C13A A16G G19A G29A U34A G44C	0
C13G C15A A16U G27U G33C	0.02
A12G U20G U32A G40U	0.01
A12U G30A C37G	0.02
A12U G30A C37A	0
C13A G22A A26C	0.1
C13A U20G A26U G33C A41G	0.01
A12U C31A C37A G40U	0.07
A12U C13U C42A	0.05
C13A A26C U34G	0.03
A12C G36C U38A	0.02
C13A U20C G22U U34C C37U	0.04
C13A G21A G29U C31G G44U	0.03
C13A A16C G30U C31G	0.04

Variant	self-cleavage
C13A G29U G35C G36A G44U	0.1
C13G A26G C45U	0.49
A12U G17A G21U	0.06
C13A G29U A39G	0.03
A12U U38A G40U	0.25
C13A G17C C18G C45U	0.02
A12U U32A G33C U34C G44A	0.04
A12G A25C G30C	0.05
A12G G27U C45U	0.06
C13A U20C G27U	0.06
A12C U20A C45G	0.01
A12U C13A G22C G27U	0.06
C13A A14G G35A C46G	0.08
A12G A26C G33U	0.04
A12U C13A U34G U43G	0.05
A12U G22A A26G G29U	0.08
A12G A24U G30A U34G G44C	0.06
C13A A25C G29U C45G	0.02
A12G C31A C37A C46G	0.04
A12G C13U A26C	0.01
C13A G17U U20C A39C	0.04
A12G G27A C46A	0.06
C13G C18G G22C C37G	0.02
A12G G36C G40C	0.02

Variant	self-cleavage
C13G C31A C45A	0.03
C13G A25G G30C C37U	0.08
C13G A14U C23U	0.03
A12U C15U C31A	0.01
A12U C37A C42G	0.19
C13A G19C G33U C37G U38C C45G	0.02
A12G G21C A25U A26U G27U	0.01
A12U G19U U38A	0.03
C13A C31G C42A	0.1
A12U C13G G21U G33A	0.03
C13A A16U U34A G40A	0.05
C13A A24U G40C	0.01
A12G C18U G21A U38G C46U	0.01
A12G C23G A24C G27A G35A G36C A39G A41U	0.02
C13G C23G U28G U43C	0.02
C13G A16C G19U	0.12
C13A A14U G21C G22A C31G G40U	0.06
C13A G19A G21C C23U C37U	0.12
A12C G40A A41C	0
A12U C13A G36C	0.03
A12U G29C G35A	0.08
C13A C18G G22U	0.06
C13A A24C G40A	0.03
A12G C15A A41C	0.02

Variant	self-cleavage
A12C U20A C37U	0
C13G C37A C45U	0.17
A12U A14C A24G C42G	0.01
C13A G19C U32A	0.04
A12U C31G U32G	0.06
A12U A25U G44C C45G	0.01
A12G A14G C18A A25C C42A	0.07
A12G A16G G19C	0.05
A12U G30U G35A	0.15
C13A C18G G36U A39G	0.06
A12G G19A G27C G29U C37A	0.01
A12G C31A G33C U34C	0.06
C13G C23A A26C G29C G40U C46U	0.02
C13A A14C G21A	0.07
A12G G22C G27C A39G	0.01
A12G U20C G29A	0.05
A12G A16U C46A	0.02
A12U A16U G17C	0.07
C13A A16C C23A A25U	0.04
A12G G27C G30C	0.04
A12U A26G G29A U34C	0.03
C13A A16G C18A	0.03
C13G A25G A26U G33C C42G	0.01
